Source: the supplement of paper PMC7826260
The other results are listed elsewhere or left out. Each Rep nickase domain was tested in vitro on the same pool of single strands at 3 µM enzyme and 37 °C for 1 h; the strands have 90 letters, of which the middle is given. Values are log2 of uncut reads against the no-enzyme pool; strong cutting gives strongly negative numbers. There is no active / inactive call. Counts are relative to all reads, so uncut sequences can rise above 0 when many others are cut.

Legend:
Assay in all cases: uncleaved DNA left, log2 of reads against the no-enzyme library (log2 ratio); higher = less cleavage (more negative = more Rep cleavage of the k-mer); sequences stand for … in CTCGTCCG…ACCGGAGA
[1] = system: T1, Rep nickase domain of Muscovy duck circovirus
T1 sequence (residues 1-111, tag not shown): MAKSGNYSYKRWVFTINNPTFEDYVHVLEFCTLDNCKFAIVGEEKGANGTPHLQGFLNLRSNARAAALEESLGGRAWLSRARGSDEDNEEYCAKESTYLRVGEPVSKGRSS
Description: (§1)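 A pool of 90-nt single-stranded DNAs with seven random bases just before the constant AC of the nick site (name = the seven bases) was cut by 3 µM recombinant His6-SUMO-tagged Rep nickase domain (300 nM DNA, 50 mM HEPES pH 8.0, 50 mM NaCl, 1 mM MnCl2, 1 h, 37 °C, three replicates). Uncut DNA was amplified and sequenced.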

[2] = system: T2, Rep nickase domain of banana bunchy top virus
T2 sequence (residues 1-94, tag not shown): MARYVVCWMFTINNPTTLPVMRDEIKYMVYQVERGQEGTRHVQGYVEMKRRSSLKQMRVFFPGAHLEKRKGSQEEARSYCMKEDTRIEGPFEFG
Description: as §1

[3] = system: T3, Rep nickase domain of cabbage leaf curl virus
T3 sequence (residues 1-116, tag not shown): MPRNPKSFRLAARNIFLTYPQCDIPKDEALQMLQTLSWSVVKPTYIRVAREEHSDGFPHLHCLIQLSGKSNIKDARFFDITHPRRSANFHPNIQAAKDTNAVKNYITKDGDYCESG
Description: as §1

[4] = system: T4, Rep nickase domain of chickpea chlorotic dwarf virus
T4 sequence (residues 1-124, tag not shown): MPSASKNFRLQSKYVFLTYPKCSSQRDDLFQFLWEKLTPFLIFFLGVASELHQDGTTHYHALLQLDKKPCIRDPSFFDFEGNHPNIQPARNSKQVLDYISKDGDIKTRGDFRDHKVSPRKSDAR
Description: as §1

[5] = system: T5, Rep nickase domain of faba bean necrotic yellows virus
T5 sequence (residues 1-98, tag not shown): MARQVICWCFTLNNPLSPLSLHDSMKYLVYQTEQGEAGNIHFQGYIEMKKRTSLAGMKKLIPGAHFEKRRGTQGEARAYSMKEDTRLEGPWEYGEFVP
Description: as §1

[6] = system: T6, Rep nickase domain of maize striate mosaic virus
T6 sequence (residues 1-117, tag not shown): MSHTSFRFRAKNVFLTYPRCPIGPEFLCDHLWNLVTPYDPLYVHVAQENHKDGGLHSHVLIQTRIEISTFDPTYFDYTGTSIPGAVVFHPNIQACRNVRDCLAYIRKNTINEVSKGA
Description: as §1

[7] = system: T7, Rep nickase domain of porcine circovirus 2
T7 sequence (residues 2-116, tag not shown): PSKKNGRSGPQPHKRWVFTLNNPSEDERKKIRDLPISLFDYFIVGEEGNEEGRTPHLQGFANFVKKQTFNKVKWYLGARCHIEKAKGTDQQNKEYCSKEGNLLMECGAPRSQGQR
Description: as §1

[8] = system: T8, Rep nickase domain of tomato golden mosaic virus
T8 sequence (residues 1-124, tag not shown): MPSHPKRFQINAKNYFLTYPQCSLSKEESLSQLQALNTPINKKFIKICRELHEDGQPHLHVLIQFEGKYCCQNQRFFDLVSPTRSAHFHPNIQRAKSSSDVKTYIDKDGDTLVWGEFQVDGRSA
Description: as §1

[9] = system: T9, Rep nickase domain of tomato yellow leaf curl virus
T9 sequence (residues 1-136, tag not shown): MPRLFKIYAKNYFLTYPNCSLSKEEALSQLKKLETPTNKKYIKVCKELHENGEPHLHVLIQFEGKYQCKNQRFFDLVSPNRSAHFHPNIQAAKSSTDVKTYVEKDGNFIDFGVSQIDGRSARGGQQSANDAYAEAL
Description: as §1

[10] = system: T10, Rep nickase domain of wheat dwarf virus
T10 sequence (residues 1-137, tag not shown): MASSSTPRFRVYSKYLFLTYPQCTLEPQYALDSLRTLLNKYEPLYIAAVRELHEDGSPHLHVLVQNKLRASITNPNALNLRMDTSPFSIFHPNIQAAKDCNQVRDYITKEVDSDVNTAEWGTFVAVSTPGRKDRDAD
Description: as §1

| Sequence | uncleaved DNA left (log2) [1] | uncleaved DNA left (log2) [2] | uncleaved DNA left (log2) [3] | uncleaved DNA left (log2) [4] | uncleaved DNA left (log2) [5] | uncleaved DNA left (log2) [6] | uncleaved DNA left (log2) [7] | uncleaved DNA left (log2) [8] | uncleaved DNA left (log2) [9] | uncleaved DNA left (log2) [10] |
| --- | --- | --- | --- | --- | --- | --- | --- | --- | --- | --- |
| GCACACG | -0.0724 | -0.0775 | -0.788 | -0.261 | -0.0621 | -0.951 | 0.112 | -0.0817 | -0.0655 | -0.144 |
| GCGCTGG | 0.217 | 0.0658 | 0.0192 | 0.351 | 0.0181 | 0.67 | 0.115 | -0.0222 | -0.0339 | -0.0255 |
| GTAGAAG | 0.0343 | -0.029 | -0.149 | -0.0949 | -0.161 | -0.676 | 0.0761 | 0.16 | 0.0566 | 0.00223 |
| GGTGAGA | 0.0993 | 0.123 | 0.837 | 1.68 | 0.137 | 1.95 | 0.285 | 0.134 | 0.0755 | 0.222 |
| CCCTGTT | -2.86 | -0.337 | -0.962 | -2.76 | -0.0783 | -0.753 | -3.2 | -0.288 | -0.315 | -0.605 |
| GCGTCAA | 0.000868 | 0.124 | 0.329 | 0.71 | 0.0857 | 0.695 | 0.158 | 0.183 | 0.122 | 0.14 |
| CATGAAT | 0.0888 | 0.07 | -0.0924 | -0.887 | -0.00303 | -0.105 | -0.26 | 0.0622 | -0.114 | 0.00944 |
| GCTTCTG | 0.208 | 0.109 | 0.023 | 0.434 | 0.0173 | 0.306 | 0.156 | 0.0835 | 0.155 | 0.214 |
| TAAGATA | -0.0254 | -0.0609 | -1.71 | -2.57 | -0.00221 | 0.0157 | -0.0221 | -0.091 | 0.00406 | -0.808 |
| TCGGATT | 0.144 | -0.206 | 0.0788 | 0.0938 | 0.0903 | 1.43 | -0.137 | 0.0715 | -0.0101 | 0.00381 |
| TTGGATC | -0.0382 | -0.0704 | 0.132 | 0.634 | -0.0411 | 0.85 | -0.0198 | -0.00759 | -0.118 | -0.153 |
| GGCCGTT | -0.0152 | -0.00715 | 0.634 | 1.22 | -0.0628 | 1.74 | -0.0691 | -0.0286 | -0.00663 | 0.169 |
| TTATTGG | 0.046 | -0.112 | -0.323 | -0.401 | 0.0683 | -0.831 | 0.0794 | -0.0712 | -0.106 | -0.0492 |
| GTCGTGC | 0.0887 | 0.0711 | 0.305 | 0.63 | 0.0126 | 0.835 | 0.0996 | 0.0886 | 0.114 | 0.0456 |
| CTGGGAT | 0.0209 | -0.0594 | 0.301 | 1.52 | 0.0372 | 1.82 | 0.134 | 0.0819 | -0.193 | -0.0678 |
| GGACCGT | -0.0323 | 0.0814 | 0.645 | 1.55 | -0.091 | 1.89 | 0.118 | -0.0336 | 0.0128 | 0.1 |

| Sequence | uncleaved DNA left (log2) [1] | uncleaved DNA left (log2) [2] | uncleaved DNA left (log2) [3] | uncleaved DNA left (log2) [4] | uncleaved DNA left (log2) [5] | uncleaved DNA left (log2) [6] | uncleaved DNA left (log2) [7] | uncleaved DNA left (log2) [8] | uncleaved DNA left (log2) [9] | uncleaved DNA left (log2) [10] |
| --- | --- | --- | --- | --- | --- | --- | --- | --- | --- | --- |
| AGGCAGT | 0.0828 | 0.135 | 0.434 | 0.963 | 0.0212 | 0.775 | 0.21 | 0.127 | 0.123 | 0.166 |
| GAGGCCA | 0.0819 | 0.17 | 0.654 | 1.16 | 0.0361 | 1.88 | 0.0677 | 0.104 | 0.078 | 0.14 |
| GTTGTCC | -0.0114 | 0.0294 | 0.242 | 0.698 | -0.00438 | 1.35 | 0.0485 | -0.0359 | -0.0154 | 0.054 |
| TCCATGC | 0.0379 | -0.0866 | -0.653 | -0.544 | 0.0186 | -1.18 | 0.0818 | -0.0997 | 0.0253 | -0.0235 |
| AGGGCAC | 0.0472 | 0.149 | 0.641 | 1.47 | -0.0481 | 1.59 | 0.221 | 0.0433 | 0.019 | 0.128 |
| ACAACGT | -0.0246 | -0.106 | -0.189 | -0.464 | -0.141 | -0.981 | 0.0829 | 0.0367 | -0.134 | -0.209 |
| GCAACAT | 0.0797 | 0.132 | 0.741 | 1.66 | -0.00216 | 1.77 | 0.172 | 0.0269 | 0.0794 | 0.188 |
| ACCGATG | -0.0141 | 0.0743 | -0.436 | -0.232 | -0.0212 | -1.08 | 0.0506 | 0.173 | 0.0385 | -0.0682 |
| CGGTAGG | -0.0684 | -0.02 | -0.0612 | 0.458 | -0.0834 | -0.0641 | 0.0839 | 0.02 | -0.158 | -0.112 |
| CTCACTC | 0.00302 | -0.0593 | 0.0261 | -0.738 | -0.0674 | -0.707 | 0.0242 | -0.152 | -0.0601 | 0.021 |
| TCAATAG | 0.0677 | -0.0316 | -0.722 | -0.714 | -0.00578 | -1.31 | 0.179 | -0.0857 | 0.0461 | 0.0194 |
| TCCACTA | 0.0194 | 0.0396 | 0.034 | -1.25 | 0.00377 | -0.357 | -0.0393 | -0.0181 | 0.108 | 0.0541 |
| GTGCCGG | 0.17 | -0.0479 | 0.478 | 1.18 | 0.0201 | 1.51 | -0.00502 | 0.138 | 0.0654 | 0.0153 |
| GGACTCT | 0.137 | 0.129 | 0.734 | 1.6 | 0.0503 | 2.19 | 0.169 | -0.0352 | 0.107 | 0.266 |
| ACAATAC | -0.0904 | -0.0628 | -0.233 | -0.878 | 0.071 | -1.04 | 0.0926 | 0.0349 | -0.152 | -0.0974 |
